Measured values: PMC4336329 (PLoS ONE, 2015)
The campaign covered roughly 310,000 compounds. About 2,200 (0.71%) showed an effect of 50% or more. Effects have a minus sign here. Some of the results follow.

These molecules were tested against human ether-à-go-go-related gene (hERG) potassium channel (human, UniProt Q12809) (assay: primary screen, population patch clamp on CHO cells stably expressing hERG).
human ether-à-go-go-related gene (hERG) potassium channel, sequence (Q12809 whole entry, looked up): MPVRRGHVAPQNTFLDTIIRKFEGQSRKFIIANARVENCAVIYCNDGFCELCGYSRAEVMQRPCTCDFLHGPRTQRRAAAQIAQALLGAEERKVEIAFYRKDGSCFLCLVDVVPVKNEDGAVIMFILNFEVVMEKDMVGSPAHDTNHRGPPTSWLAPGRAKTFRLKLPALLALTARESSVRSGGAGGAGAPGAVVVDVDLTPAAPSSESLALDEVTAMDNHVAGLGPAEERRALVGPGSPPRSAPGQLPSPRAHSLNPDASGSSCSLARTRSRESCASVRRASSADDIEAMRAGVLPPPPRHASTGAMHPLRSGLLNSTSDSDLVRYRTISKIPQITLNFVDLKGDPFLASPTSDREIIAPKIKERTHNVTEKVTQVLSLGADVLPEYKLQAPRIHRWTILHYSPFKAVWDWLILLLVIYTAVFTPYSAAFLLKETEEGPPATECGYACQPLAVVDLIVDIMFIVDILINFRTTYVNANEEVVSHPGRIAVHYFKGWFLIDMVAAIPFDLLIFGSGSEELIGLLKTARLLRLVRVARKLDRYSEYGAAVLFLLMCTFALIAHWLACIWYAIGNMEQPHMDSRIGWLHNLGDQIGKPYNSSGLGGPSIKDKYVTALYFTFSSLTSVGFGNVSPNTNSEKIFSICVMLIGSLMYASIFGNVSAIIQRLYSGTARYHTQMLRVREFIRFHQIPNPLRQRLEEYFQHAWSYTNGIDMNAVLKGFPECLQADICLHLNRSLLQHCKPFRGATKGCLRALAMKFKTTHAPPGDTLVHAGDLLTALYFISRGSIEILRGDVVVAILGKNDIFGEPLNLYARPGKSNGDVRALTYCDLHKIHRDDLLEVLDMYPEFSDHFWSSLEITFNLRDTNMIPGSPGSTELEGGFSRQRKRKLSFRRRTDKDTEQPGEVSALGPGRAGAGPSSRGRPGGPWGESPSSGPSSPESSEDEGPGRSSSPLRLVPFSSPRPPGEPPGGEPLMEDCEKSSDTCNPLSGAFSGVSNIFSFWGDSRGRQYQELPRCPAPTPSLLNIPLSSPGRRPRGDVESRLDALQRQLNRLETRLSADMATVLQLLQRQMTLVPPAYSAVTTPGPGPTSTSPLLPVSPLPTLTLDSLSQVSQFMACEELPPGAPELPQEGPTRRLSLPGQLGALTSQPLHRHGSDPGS

SMILES | hERG current change (%, negative = inhibition) at 1uM
O=C(OC1CCOC1=O)c1ccccc1C(=O)c1ccc(Cl)c([N+](=O)[O-])c1 (centres unmarked) | 16.7%
COC(=O)C1=C(C)NC2=C(C(=O)c3ccccc32)C1c1cccc(OC)c1 (centres unmarked) | 6.56%
CSc1ncccc1C(=O)Nc1nc2c(C)cccc2s1 | 12.9%
Cc1c(C(=O)NCCSCc2c(Cl)cccc2Cl)cccc1[N+](=O)[O-] | 7.12%
CN(CCC#N)C(=O)c1cc2c(Cl)nc3ccccc3c2s1 | 11.5%
CCOc1ccccc1N1CC(C(=O)Nc2ccc(C(=O)O)cc2)CC1=O (centres unmarked) | 11%
COCCn1nnnc1C(c1ccccc1)N1CCN(C(=O)c2ccco2)CC1.Cl (centres unmarked) | 8.84%
COC(=O)c1cc(-c2ccccc2)nc2nc(SC)[nH]c(=O)c12 | 11.3%
Cc1ccc(S(=O)(=O)Nc2ccc(OCC(=O)N3CCOCC3)cc2)c(C)c1NS(C)(=O)=O | 13.7%
COc1ccccc1NC(=O)CSc1nc2sc(C)c(C)c2c(=O)n1C | 0.91%
CN1CCN(C(=S)Nc2ccc(Cl)cc2Cl)CC1 | 4.46%
O=C(c1ccc(S(=O)(=O)Nc2ccccc2F)cc1)N1CCC1 | 1.03%
Cl.O=C1c2cccc3c2[C@H](CCC3)CN1[C@@H]1CN2CCC1CC2 | -21.1%
COc1ccc(S(=O)(=O)CCC(=O)N2CCN(c3ccccc3F)CC2)cc1 | 7.56%
COc1ccc2c(COC(=O)c3cccc(S(=O)(=O)NCC(C)C)c3)cc(=O)oc2c1 | 10.6%
CCOP(=O)(OCC)c1cccc(P(=O)(c2ccccc2)c2ccccc2)c1O | 13.2%
Cc1cccc(C(=O)Nc2cccc(C(=O)NC3CCCC3)c2)c1 | -0.37%
Cc1ccccc1C(=O)Nc1ccccn1 | 6.21%
COc1nc(Nc2ccccc2F)nc(OC)n1 | 1.13%
CCN(CC)CCCN(Cc1cc2cc(OC)ccc2[nH]c1=O)C(=O)Nc1ccc(F)cc1 | -47.6%
O=C(COc1ccccc1)NCC(=O)N/N=C/c1ccco1 | 4.57%
Cc1onc(-c2ccccc2)c1C(=O)Nc1ccc(NC(=O)c2c(-c3ccccc3)noc2C)cc1 | 11.6%
COc1cccc(NC(=O)N2CCC(n3nnc4ccccc43)CC2)c1 | 2.9%

SMILES | hERG current change (%, negative = inhibition) at 1uM
COC(=O)c1c(NC(=O)COC(=O)CCS(=O)(=O)c2ccc(C)cc2)sc(C)c1C | 8.77%
CCC(C)(C)NC(=O)c1cc(OC)c(OC)cc1[N+](=O)[O-] | 17.2%
Cl.O=C(Cn1cc(CCO)nn1)N1CCNCC1 | 3.54%
O=C(CCl)N1CCN(S(=O)(=O)c2ccc3c(c2)CCC3)CC1 | 0.771%
COc1ccc(CCN(Cc2cc3cccc(C)c3[nH]c2=O)C(=O)N2CCCC2)cc1OC | 0.211%
Cc1nn(CC(C)C)c2sc(C(=O)NC3CC(C)(C)NC(C)(C)C3)cc12 | 13.7%
CSCCC(NS(=O)(=O)c1ccc2c(c1)oc(=O)n2C)C(=O)NC1CCC(C)CC1 (centres unmarked) | 5.51%
Cn1c(=O)cc(OCCCC(=O)NCc2ccccn2)c2ccccc21 | 3.38%
Cc1ccc(C)c(N2CCN(S(=O)(=O)c3c(C)[nH]c(C)c3C(=O)N3CCCCC3)CC2)c1 | 6.85%
CC(C)CCNC(=O)c1ccccc1SCC(=O)NC1CCCCCCC1 | 9.06%
COc1ccc(C)cc1S(=O)(=O)N1CCOCC1 | 10.7%
CCN(C(N)=S)c1ccccc1 | 5.53%
CN(C(=O)COC(=O)COc1ccc2ccccc2c1)c1c(N)n(Cc2ccccc2)c(=O)[nH]c1=O | 12.1%
CCOc1ccc(NC(=O)CNC(=O)c2ccc([N+](=O)[O-])cc2)cc1 | 5.93%
CCC(=O)c1c(NC(C)C)cc(C)oc1=O | 6.59%
CCCCN(C(=O)c1ccc(Cl)c([N+](=O)[O-])c1)c1c(N)n(CCC)c(=O)[nH]c1=O | 7.07%
C/C(=N/NC(=O)CSc1ccccn1)c1ccc([N+](=O)[O-])cc1 | -7.02%
C=CCOc1ccc(C2/C(=C(\O)c3ccc4c(c3)CC(C)O4)C(=O)C(=O)N2CCN2CCOCC2)cc1OCC (centres unmarked) | 17.6%
CCOC(=O)COc1c(C=O)cc(Br)cc1OC | -6.13%
CC(C)(C)[C@H]1C=C(C(=O)NCc2nc3ccccc3[nH]2)O[C@@H](OCc2ccc(CO)cc2)C1 | 5.49%
CCOC(=O)c1cccc(NC(=O)CCS(=O)(=O)c2ccc(Br)s2)c1 | 10.1%
COc1cccc(NC(=O)CC(=O)c2ccccc2)c1 | 12.5%
Cc1ccc2nc(C3CCCN(C(=S)Nc4ccccc4C)C3)[nH]c2c1 (centres unmarked) | 0.196%

SMILES | hERG current change (%, negative = inhibition) at 1uM
COc1ccc(S(=O)(=O)Cc2ccc(C(=O)NC3CCC(C)CC3)o2)cc1 (centres unmarked) | 4.35%
CCO[C@@H]1OC(C(=O)O)=C[C@H](C2CC2)[C@H]1CCCO | 8.23%
NC(=O)CC(NC(=O)Cc1cccc2ccccc12)c1ccc(NCCCN2CCCC2=O)c([N+](=O)[O-])c1 (centres unmarked) | 8.49%
CN(CC(=O)Nc1ccc(OC(F)(F)F)cc1)C(=O)Cn1c(=O)cnc2ccccc21 | -9.89%
COc1ccc(N(CC(=O)N2CCN(c3cccc(C)c3)C(C)C2)S(=O)(=O)c2c(C)n[nH]c2C)cc1 (centres unmarked) | 0.55%
O=C(CN1CCN(c2ccccn2)CC1)NC(=O)NC1CCCCC1 | 10.2%
O=C(/C=C/c1nc2ccccc2s1)N1CCCCCC1 | 5.56%
CCc1ccccc1NC(=O)CNC(=O)c1ccc(-n2cncn2)c([N+](=O)[O-])c1 | 13.6%
COCCCNC(=O)CNC(=S)N(Cc1cc(OC)c(OC)c(OC)c1)C1CCCC1 | 9.27%
O=C(Nc1c(C(=O)N2CCOCC2)oc2ccccc12)c1ccccc1Cl | 8.34%
NC(=O)c1cc(S(=O)(=O)N2CCCCC2)cs1 | 19.8%
CC(=O)Nc1ccc(C2(c3ccc(NC(C)=O)cc3)NC(=O)c3ccccc32)cc1 | 12.1%
O=C1NCCN1C(=O)c1ccccc1F | 9.39%
CC(C)N(C(=O)CN1CCN(C(=O)C2COc3ccccc3O2)CC1)C(C)C (centres unmarked) | 11%
CNC(=O)COc1coc(CN2CCN(c3ccc(OC)cc3)CC2)cc1=O | 7.69%
Cn1c(=NC(=O)C2CCN(S(=O)(=O)c3cccs3)CC2)sc2ccccc21 | 8.29%
CCOC(=O)c1c(C)nn(-c2ccc(NC(=O)CSCC(=O)O)cc2)c1C | 14.3%
COC(=O)c1ccc(NC(=S)NCCCn2ccnc2)cc1 | 16.8%
c1ccc(N2CCN(Cc3nc4ccccc4[nH]3)CC2)nc1 | 10.6%
COc1ccc(Cn2nnnc2CN2CCCCCC2)cc1 | 19.6%
OC1CCCN(CC(O)COC(c2ccccc2)c2ccccc2)C1 (centres unmarked) | 1.02%
COC(=O)n1c(=O)oc2cc(S(=O)(=O)N3CCCCC3)ccc21 | -6.58%
CCOc1c(Nc2cccc(Cl)c2)c(=O)c1=O | 9.31%

SMILES | hERG current change (%, negative = inhibition) at 1uM
Cc1ccc(S(=O)(=O)N2CCN(C(=O)CSc3cc(C)ccc3C)CC2)c(C)c1 | 9.17%
COc1cc2[nH]c(=O)n(CCCCCC(=O)NCCCN3CCOCC3)c(=O)c2cc1OC | 5.05%
CNC(=S)N/N=C(\C)c1ccc2c(c1)OCCO2 | 12.9%
COCCn1cnc2cc(C)c(C)cc21 | 5.67%
C=CCNC(=S)Nc1ccc2nsnc2c1 | 0.531%
CCOC(=O)Cc1csc(NS(C)(=O)=O)n1 | 12.1%
CC1(C)O[C@@H]2C[C@H]3[C@@H]4C[C@H](F)C5=CC(=O)CC[C@]5(C)[C@H]4[C@@H](O)C[C@]3(C)[C@]2(C(=O)CO)O1 | 18.1%
CSc1ccccc1C(=O)N(C)C(c1ccccc1)c1ccccc1 | 16.3%
COc1ccc(-c2c(C#Cc3ccccc3)c3ccccc3n2C)cc1 | 18.5%
C/C(=N\NC(=O)CNC(=O)c1ccc2c(c1)OCO2)c1ccco1 | 8.28%
CN(C(=O)Cn1cnc2sccc2c1=O)C1CCCCC1 | -1.32%
CN(C=O)CP(=O)(O)CN(C)C=O | 3.64%
O=C(N/N=C/c1ccc(OCC(=O)N2CCCC2)cc1)C(=O)NC1CC1 | 11.2%
CCc1cc(-c2[nH]ncc2-c2ccc(OC)cc2)c(O)cc1O | 14%
O=S(=O)(Nc1cccc2ccccc12)c1ccccc1 | 15.3%
COc1ccccc1-n1c(CNc2ccc(F)cc2)nnc1SCC(=O)Nc1cc(C)on1 | 3.58%
Cc1cccc(NC(=S)NNC(=O)Cc2ccccc2)c1 | 10.9%
Cc1cccc(C)c1NC(=O)NC1(C(=O)N2CCOCC2)CCCCC1 | -1.99%
Cl.NC(N)=N/N=C/c1ccc(Br)cc1 | 7.07%
Cc1ccc(S(=O)(=O)N2CCC(Oc3cccc(C(F)(F)F)c3)CC2)cc1 | 13.2%
